Data: PubChem BioAssay AID1346428 (National Center for Advancing Translational Sciences (NCATS), 2018)
In all, about 48,000 compounds went through this assay and about 1,200 (2.5%) were called active. Another 2% or so got no clear call; they are omitted.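 How the source made its calls: active means activation of at least 60% and not above a set upper limit (about 1 call in 100 departs from these limits); inconclusive means activation of 40% to 60%, or above that upper limit; inactive means activation under 40%.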 The list shows a part of the results.

Target: Probable G-protein coupled receptor 32 (Homo sapiens) (UniProt O75388)
UniProt O75388, sequence (O75388 whole entry, looked up): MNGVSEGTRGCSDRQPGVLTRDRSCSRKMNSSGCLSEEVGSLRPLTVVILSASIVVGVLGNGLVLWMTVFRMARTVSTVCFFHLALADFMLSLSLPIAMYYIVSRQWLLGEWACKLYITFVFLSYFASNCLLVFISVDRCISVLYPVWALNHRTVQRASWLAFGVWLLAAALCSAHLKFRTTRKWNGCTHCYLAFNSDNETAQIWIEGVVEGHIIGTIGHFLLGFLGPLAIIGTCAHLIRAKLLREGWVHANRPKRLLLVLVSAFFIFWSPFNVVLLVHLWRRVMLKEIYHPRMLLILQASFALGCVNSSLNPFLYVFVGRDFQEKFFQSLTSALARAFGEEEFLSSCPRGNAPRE
Assay: qHTS for Agonists of Human Resolvin D1 Receptor DRV1; further: 0% is about no effect
Conditions: CHO-K1 GPR32 beta-arrestin PathHunter luminescence, 90 min; at 76.9 µM; active compounds read high; zero percent set by DMSO-only wells
In short: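 Beta-arrestin recruitment read-out: luminescence from complemented beta-Gal in CHO-K1 GPR32 PathHunter cells, measured 1 h after detection reagent at ambient temperature following 90 min compound exposure at 37 °C; DMSO served as basal (EC0) control.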

| SMILES | activation |
| --- | --- |
| CCCCn1c(SCC(=O)Nc2cccc(OC)c2)nc2ccsc2c1=O | inactive: -23.7% |
| Cc1ccc(C2=NN(CC(=O)NC(C)c3ccccc3)C(=O)CC2)cc1 (centres undefined) | inactive: -17.8% |
| COc1ccc(-c2cn3nc(N4CCC(C(=O)NCc5ccc(F)cc5)CC4)sc3n2)cc1 | inactive: 0.825% |
| CC(C)c1ccc(Nc2c(-c3ccc(N4CCOCC4)cc3)nc3ncccn23)cc1 | inactive: -20.1% |
| CCOC(=O)c1c(NC(=O)COc2cccc(C)c2C)sc2c1CCCCC2 | inactive: 13.2% |
| Cc1ccccc1Nc1c(-c2ccccc2O)nc2sccn12 | inactive: -30.7% |
| Cc1nn(C)c2c1c(-c1ccccc1)cc(=O)n2Cc1c(F)cccc1Cl | inactive: -19.9% |
| O=C(c1cc(-c2ccc(Cl)cc2)on1)N(Cc1ccc(F)cc1)Cc1ccco1 | inactive: -7.73% |
| O=C1c2oc3ccccc3c(=O)c2C(c2cccc(O)c2)N1Cc1ccc(F)cc1 (centres undefined) | inactive: -18.6% |
| CC(C)Sc1ncc(Cl)c(C(=O)Nc2c(C(=O)Nc3ccccc3)oc3ccccc23)n1 | inactive: 9.65% |
| CCOc1ccc(N(CC(=O)Nc2ccc3c(c2)OCO3)S(=O)(=O)c2ccccc2)cc1 | inactive: -13.6% |
| CCOC(=O)Cc1ccc(NC(=O)N2CCC(CN3CCC(C)CC3)CC2)cc1 | inactive: 4.51% |
| COc1ccc(N(C(=O)c2ccc(C)cc2)S(=O)(=O)c2ccc(Cl)cc2)cc1 | inactive: -9.23% |
| CCN(c1ccccc1)S(=O)(=O)c1nnc(NC(=O)C(C)Oc2ccccc2)s1 (centres undefined) | inactive: 5.13% |
| CCc1ccc(NS(=O)(=O)c2ccc3[nH]cc(C(=O)N4CCCCCC4)c(=O)c3c2)cc1 | inactive: 16% |
| O=C1CN(C(=O)c2ccc(S(=O)(=O)N3CCCC3)cc2)C(c2ccc(F)cc2)c2cc(F)ccc2N1 (centres undefined) | inactive: -7.74% |
| CCc1cccc(NC(=O)c2sc3nc[nH]c(=O)c3c2C)c1 | inactive: 8.38% |
| COc1cc(C2C(C(=O)Nc3ccc(C)cc3C)=C(C)Nc3nc(SCc4ccccc4)nn32)cc(OC)c1OC (centres undefined) | inactive: 9.1% |
| Cc1ccc2oc3c(c(=O)c2c1)C(c1cccc(O)c1)N(CCCN1CCOCC1)C3=O (centres undefined) | inactive: 14.4% |
| Cc1ccc(CNC(=O)c2cnn3c(C)c(Cc4c(F)cccc4Cl)c(C)nc23)cc1 | inactive: -22.8% |
| Cc1cccc(-c2nnc(SCC(=O)NC3CCCCC3)o2)c1 | inactive: 0.476% |
| CCOc1ccc(CCNC(=O)c2ccc(C)c(-n3c(C)nc4cccnc43)c2)cc1OCC | inactive: -13.1% |
| Nc1[nH]c(=O)ncc1F | inactive: -0.657% |
| CCN(Cc1ccccc1)C(=O)c1cc2ccc3cccnc3c2[nH]1 | inactive: 8.12% |
| CCOc1ccccc1NC(=O)c1cc2ccc3cccnc3c2[nH]1 | inactive: 0.957% |
| CCOc1ccc(C(=O)Nc2cc(-c3ccccc3)no2)cc1 | inactive: -65.6% |
| Cc1cc(Br)ccc1NC(=O)CN1C(=O)c2cccnc2Sc2ccccc21 | inactive: -2.52% |

| SMILES | activation |
| --- | --- |
| COc1ccc(C(=O)NCC(c2cccnc2)N2CCN(c3ccccc3F)CC2)cc1OC (centres undefined) | inactive: -2.45% |
| COC(=O)c1c(C)sc(-c2c(-c3ccc(F)cc3)[nH]c3[nH]c(=O)[nH]c(=O)c23)c1O | inactive: -30% |
| CCC(=O)O[C@]1(C(=O)SCF)[C@H](C)C[C@H]2[C@@H]3C[C@H](F)C4=CC(=O)C=C[C@]4(C)[C@@]3(F)[C@@H](O)C[C@@]21C | inactive: 2.08% |
| CC(C)(C)NCC(O)COc1ccccc1OCC1CCCO1 (centres undefined) | inactive: -8.75% |
| CCCc1nn2c(=O)cc(COC(=O)c3ccccc3NC(=O)C3CCCCC3)nc2s1 | inactive: -11.8% |
| CCC(=O)N1CCc2cc(S(=O)(=O)CCC(=O)NCc3ccccc3Cl)ccc21 | inactive: -5.19% |
| COc1ccc(CCNC(=O)CCc2c(C)nc3c(-c4ccc(F)cc4)c(C)nn3c2C)cc1OC | inactive: 12.9% |
| CCc1ccc(NC(=O)CN(c2ccc(C)cc2)S(=O)(=O)c2c(C)nn(C)c2C)cc1 | inactive: -14.9% |
| COCCCNC(=O)N1CCN(c2nnc(C)c3c(C)n(-c4ccc(Cl)cc4)nc23)CC1 | inactive: 8.25% |
| Cc1ccc(-n2c(SCc3nc(-c4ccc(Cl)cc4)no3)nnc2-c2ccncc2)cc1 | inactive: 8.23% |
| CC1=C(C(=O)OC2CCCCCC2)C(c2ccccc2Cl)CC(=O)N1 (centres undefined) | inactive: -8.15% |
| COc1ccc(Cn2c(C(=O)O)c(CNCCc3cccs3)c3ccc(OC)cc32)cc1 | inactive: 39% |
| CCOc1cccc(CC(=O)N2CCc3c([nH]c4ccccc34)C2c2ccc(OC)cc2)c1OCC (centres undefined) | inactive: -28.2% |
| Cc1ccccc1CN1C(=O)c2ccccc2S(=O)c2ccc(C(=O)NCc3ccccc3)cc21 (centres undefined) | inactive: -30.7% |
| COc1cccc(CNCCCSc2nnnn2C)c1 | inactive: -0.717% |
| COc1ccc(-c2c(C)nn3c(C(F)(F)F)cc(C)nc23)cc1OC | inactive: -26.1% |
| Cc1oc2ncn(C)c(=O)c2c1C(=O)N1CCN(c2ccc(Cl)cc2)CC1 | inactive: -9.82% |
| Cc1ccc2c(c1)N(S(=O)(=O)c1ccc3c(c1)NC(=O)CC(=O)N3)CCO2 | inactive: -8.05% |
| Cc1ccc2c(c1)N(CC(=O)NCCCN1CCCCC1C)C(=O)c1cccnc1O2 (centres undefined) | inactive: -5.9% |
| Cc1ccc(-n2c(=O)c3ccc(C(=O)NCc4ccco4)cc3n(Cc3ccc(Cl)cc3)c2=O)cc1 | inactive: -3.64% |
| Cc1ccccc1CNCCSc1nnnn1-c1ccccc1 | inactive: -8.34% |
| NCCCS(=O)(=O)O | inactive: 3.17% |
| CCOC(=O)N1CCN(Cc2nc3cc(NC(=O)c4ccccc4OC)ccc3n2C(C)C)CC1 | inactive: -8.13% |
| COc1ccc(-n2c(=O)c3ccc(C(=O)NCc4ccc(C)cc4)cc3n(Cc3ccc(C)cc3)c2=O)cc1 | inactive: -6.42% |
| COc1ccc(CNC(=O)c2nc(S(=O)(=O)Cc3ccccc3)ncc2Cl)cc1 | inactive: -23.2% |
| COc1ccc(CNC(=O)CCc2c(C)c3cc4c(C)coc4cc3oc2=O)cc1 | active: 68% |
| Cc1ccc(-n2nc3c(=O)n(CC(=O)NCc4ccco4)nc(C)c3c2C)cc1 | inactive: -5.95% |
